Results as given in PubChem BioAssay (NCATS).
The shares of active, inactive and inconclusive entries below differ from those in the screen. Potencies of inconclusive entries are left out as doubtful fits. Active and inactive are the calls of the source. The call rests on the fitted dose curve; in most records, active means well fitted inhibition curve with a large enough effect; inconclusive means small, poorly fitted or top-dose-only effect; inactive means flat fitted curve, though single readings scatter.

The molecules below were run against Ubiquitin carboxyl-terminal hydrolase 1 (Homo sapiens) (UniProt O94782) (assay: Inhibitors of USP1/UAF1: Pilot qHTS (AID 504865;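 further: rhodamine fluorescence freed from ubiquitin-rhodamine substrate followed over time; nearly all actives have a fitted effect of over 35% in size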; on activity change, negative = inhibition: top concentration of the series differs between compounds)). Settings: purified USP1/UAF1, Ub-rhodamine cleavage fluorescence; series mostly up to 54.9 µM; activity change, negative = inhibition: at the top concentration.
UniProt O94782, sequence (O94782 whole entry, looked up): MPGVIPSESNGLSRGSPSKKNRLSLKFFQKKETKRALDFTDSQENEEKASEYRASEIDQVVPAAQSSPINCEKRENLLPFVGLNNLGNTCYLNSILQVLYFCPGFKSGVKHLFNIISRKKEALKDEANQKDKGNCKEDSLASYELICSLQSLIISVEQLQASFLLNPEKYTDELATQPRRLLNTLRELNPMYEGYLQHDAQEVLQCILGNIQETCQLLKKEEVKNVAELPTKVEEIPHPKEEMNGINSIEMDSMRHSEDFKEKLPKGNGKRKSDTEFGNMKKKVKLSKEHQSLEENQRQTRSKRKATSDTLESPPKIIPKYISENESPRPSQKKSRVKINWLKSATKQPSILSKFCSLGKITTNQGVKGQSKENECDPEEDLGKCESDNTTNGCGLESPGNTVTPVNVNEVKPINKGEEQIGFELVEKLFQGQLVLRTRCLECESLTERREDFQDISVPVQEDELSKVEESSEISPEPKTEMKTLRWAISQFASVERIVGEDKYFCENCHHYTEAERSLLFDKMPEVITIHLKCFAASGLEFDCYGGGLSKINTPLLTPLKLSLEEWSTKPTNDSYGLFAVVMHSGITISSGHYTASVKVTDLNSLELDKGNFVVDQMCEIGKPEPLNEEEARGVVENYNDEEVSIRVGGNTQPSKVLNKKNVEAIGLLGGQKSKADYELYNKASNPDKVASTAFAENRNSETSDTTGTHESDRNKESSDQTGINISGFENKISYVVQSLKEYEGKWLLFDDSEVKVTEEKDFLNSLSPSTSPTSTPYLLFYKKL
Summary of the method: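 Enzyme-free wells gave the negative control, while test wells held 1nM USP1/UAF1 preincubated with compound for 15 min at room temperature. Ub-Rho at 150nM final started the reaction, and fluorescence at 480/540 nm was recorded kinetically.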
On the % scale 0 is the no-effect control and ±100 the full control effect; potency means the concentration at half of the fitted maximal effect; tags describe the fitted curve by direction and shape.

Row | Structure (SMILES) | Potency | activity change, negative = inhibition
1 | Clc1ccccc1-c1cc(NCc2ccccc2)ncn1 | inconclusive [inhibitor, partial curve, poor fit] | 
2 | c1ccc(CNc2cc(-c3ccoc3)ncn2)cc1 |  | inactive: -1.42%
3 | COc1cccc(Cn2c(=O)c(-c3cccs3)nc3cncnc32)c1 |  | inactive: -14.7%
4 | O=c1c(-c2ccccc2)nc2cnc(N3CCOCC3)nc2n1C[C@H]1CCCO1 |  | inactive: -7.59%
5 | COc1ccc2[nH]cc(CCNc3ccnc(-c4ccccc4C(F)(F)F)n3)c2c1 | inconclusive [inhibitor, single point] | 
6 | COc1ccccc1CNc1ccnc(-c2ccc(N(C)C)cc2)n1 |  | inactive: -23.9%
